# ± gives the standard deviation of the averaged measurements. Restriction of a single-cycle SIVsab GFP reporter by TRIM5α v1-loop variants in CRFK cells. Human variants: read share among cells still uninfected after two challenges over input, higher = gained restriction. Rhesus variants: share among infected cells over input, higher = lost restriction. Reporter dose not given per row. No active / inactive call per row; the paper calls a change when both replicates lie above its controls (mean + 2 SD of stop or wild-type variants, or the top frameshift score). Residues outside the varied loop are taken from Swiss-Prot. The paper reads the human single-substitution scores as noise; they and the rhesus combinations repeat poorly (rank correlation 0.3 to 0.4), indel scores repeat only for the top variants, rhesus substitutions well (0.9).
# Test system: SIVsab (simian immunodeficiency virus of sabaeus monkeys), single-cycle GFP reporter, in CRFK cells
# Test: enrichment among infected cells over input (fold); higher = weaker restriction
# Conditions: library: human / rhesus combinations
# Procedure: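 Pools of CRFK cells expressing variants of the TRIM5α v1 loop were challenged with the single-cycle reporter, sorted by GFP and sequenced; mean of two replicates.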
row,Sequence,enrichment
1,"MASGILLNVKEEVTCPICLELLTEPLSLHCGHSFCQACITANHKKSMLYKEGERSCPVCRISYQPENIQPNRHVANIVEKLREVKLSPEEGQKVDHCARHGEKLLLFCQEDSKVICWLCERSQEHRGHHTFLMEEVAQEYHVKLQTALEMLRQKQQEAEKLEADIREEKASWKIQIDYDKTNVSADFEQLREILDWEESNELQNLEKEEEDILKSLTKSETEMVQQTQYMRELISELEHRLQGSMMDLLQGVDGIIKRIENMTLKKPKTFHKNQRRVFRAPDLKGMLDMFRELTDARRYWVDVTLAPNNISHAVIAEDKRQVSSRNPQIMYGAPGTRFTFQTFVNFNYCTGVLGSQSITSGKHYWEVDVSKKSAWILGVCAGFQSDAMYNIEQNENYQPKYGYWVIGLQEGVKYSVFQDGSSHTPFAPFIVPLSVIICPDRVGVFVDYEACTVSFFNITNHGFLIYKFSQCSFSKPVFPYLNPRKCTVPMTLCSPSS [rhesus TRIM5α, 332-344 = GAPGTRFTFQTFV]",0.912 ± 0.2
2,"MASGILLNVKEEVTCPICLELLTEPLSLHCGHSFCQACITANHKKSMLYKEGERSCPVCRISYQPENIQPNRHVANIVEKLREVKLSPEEGQKVDHCARHGEKLLLFCQEDSKVICWLCERSQEHRGHHTFLMEEVAQEYHVKLQTALEMLRQKQQEAEKLEADIREEKASWKIQIDYDKTNVSADFEQLREILDWEESNELQNLEKEEEDILKSLTKSETEMVQQTQYMRELISELEHRLQGSMMDLLQGVDGIIKRIENMTLKKPKTFHKNQRRVFRAPDLKGMLDMFRELTDARRYWVDVTLAPNNISHAVIAEDKRQVSSRNPQIMYGARGTRFTFQTLTNFNYCTGVLGSQSITSGKHYWEVDVSKKSAWILGVCAGFQSDAMYNIEQNENYQPKYGYWVIGLQEGVKYSVFQDGSSHTPFAPFIVPLSVIICPDRVGVFVDYEACTVSFFNITNHGFLIYKFSQCSFSKPVFPYLNPRKCTVPMTLCSPSS [rhesus TRIM5α, 332-344 = GARGTRFTFQTLT]",1.76 ± 0.12
3,"MASGILLNVKEEVTCPICLELLTEPLSLHCGHSFCQACITANHKKSMLYKEGERSCPVCRISYQPENIQPNRHVANIVEKLREVKLSPEEGQKVDHCARHGEKLLLFCQEDSKVICWLCERSQEHRGHHTFLMEEVAQEYHVKLQTALEMLRQKQQEAEKLEADIREEKASWKIQIDYDKTNVSADFEQLREILDWEESNELQNLEKEEEDILKSLTKSETEMVQQTQYMRELISELEHRLQGSMMDLLQGVDGIIKRIENMTLKKPKTFHKNQRRVFRAPDLKGMLDMFRELTDARRYWVDVTLAPNNISHAVIAEDKRQVSSRNPQIMYQARGTLYTFQTLTNFNYCTGVLGSQSITSGKHYWEVDVSKKSAWILGVCAGFQSDAMYNIEQNENYQPKYGYWVIGLQEGVKYSVFQDGSSHTPFAPFIVPLSVIICPDRVGVFVDYEACTVSFFNITNHGFLIYKFSQCSFSKPVFPYLNPRKCTVPMTLCSPSS [rhesus TRIM5α, 332-344 = QARGTLYTFQTLT]",1.55 ± 0.64
4,"MASGILLNVKEEVTCPICLELLTEPLSLHCGHSFCQACITANHKKSMLYKEGERSCPVCRISYQPENIQPNRHVANIVEKLREVKLSPEEGQKVDHCARHGEKLLLFCQEDSKVICWLCERSQEHRGHHTFLMEEVAQEYHVKLQTALEMLRQKQQEAEKLEADIREEKASWKIQIDYDKTNVSADFEQLREILDWEESNELQNLEKEEEDILKSLTKSETEMVQQTQYMRELISELEHRLQGSMMDLLQGVDGIIKRIENMTLKKPKTFHKNQRRVFRAPDLKGMLDMFRELTDARRYWVDVTLAPNNISHAVIAEDKRQVSSRNPQIMYQARGTRYTFQTFVNFNYCTGVLGSQSITSGKHYWEVDVSKKSAWILGVCAGFQSDAMYNIEQNENYQPKYGYWVIGLQEGVKYSVFQDGSSHTPFAPFIVPLSVIICPDRVGVFVDYEACTVSFFNITNHGFLIYKFSQCSFSKPVFPYLNPRKCTVPMTLCSPSS [rhesus TRIM5α, 332-344 = QARGTRYTFQTFV]",1.29 ± 0.96
5,"MASGILLNVKEEVTCPICLELLTEPLSLHCGHSFCQACITANHKKSMLYKEGERSCPVCRISYQPENIQPNRHVANIVEKLREVKLSPEEGQKVDHCARHGEKLLLFCQEDSKVICWLCERSQEHRGHHTFLMEEVAQEYHVKLQTALEMLRQKQQEAEKLEADIREEKASWKIQIDYDKTNVSADFEQLREILDWEESNELQNLEKEEEDILKSLTKSETEMVQQTQYMRELISELEHRLQGSMMDLLQGVDGIIKRIENMTLKKPKTFHKNQRRVFRAPDLKGMLDMFRELTDARRYWVDVTLAPNNISHAVIAEDKRQVSSRNPQIMYGAPGTLYQSLVNFNYCTGVLGSQSITSGKHYWEVDVSKKSAWILGVCAGFQSDAMYNIEQNENYQPKYGYWVIGLQEGVKYSVFQDGSSHTPFAPFIVPLSVIICPDRVGVFVDYEACTVSFFNITNHGFLIYKFSQCSFSKPVFPYLNPRKCTVPMTLCSPSS [rhesus TRIM5α, 332-344 = GAPGTLYQSLV]",0.648 ± 0.7
6,"MASGILLNVKEEVTCPICLELLTEPLSLHCGHSFCQACITANHKKSMLYKEGERSCPVCRISYQPENIQPNRHVANIVEKLREVKLSPEEGQKVDHCARHGEKLLLFCQEDSKVICWLCERSQEHRGHHTFLMEEVAQEYHVKLQTALEMLRQKQQEAEKLEADIREEKASWKIQIDYDKTNVSADFEQLREILDWEESNELQNLEKEEEDILKSLTKSETEMVQQTQYMRELISELEHRLQGSMMDLLQGVDGIIKRIENMTLKKPKTFHKNQRRVFRAPDLKGMLDMFRELTDARRYWVDVTLAPNNISHAVIAEDKRQVSSRNPQIMYGAPGTLFTFPTLVNFNYCTGVLGSQSITSGKHYWEVDVSKKSAWILGVCAGFQSDAMYNIEQNENYQPKYGYWVIGLQEGVKYSVFQDGSSHTPFAPFIVPLSVIICPDRVGVFVDYEACTVSFFNITNHGFLIYKFSQCSFSKPVFPYLNPRKCTVPMTLCSPSS [rhesus TRIM5α, 332-344 = GAPGTLFTFPTLV]",0.227 ± 0.11
7,"MASGILLNVKEEVTCPICLELLTEPLSLHCGHSFCQACITANHKKSMLYKEGERSCPVCRISYQPENIQPNRHVANIVEKLREVKLSPEEGQKVDHCARHGEKLLLFCQEDSKVICWLCERSQEHRGHHTFLMEEVAQEYHVKLQTALEMLRQKQQEAEKLEADIREEKASWKIQIDYDKTNVSADFEQLREILDWEESNELQNLEKEEEDILKSLTKSETEMVQQTQYMRELISELEHRLQGSMMDLLQGVDGIIKRIENMTLKKPKTFHKNQRRVFRAPDLKGMLDMFRELTDARRYWVDVTLAPNNISHAVIAEDKRQVSSRNPQIMYGAPGTLYTFPTLVNFNYCTGVLGSQSITSGKHYWEVDVSKKSAWILGVCAGFQSDAMYNIEQNENYQPKYGYWVIGLQEGVKYSVFQDGSSHTPFAPFIVPLSVIICPDRVGVFVDYEACTVSFFNITNHGFLIYKFSQCSFSKPVFPYLNPRKCTVPMTLCSPSS [rhesus TRIM5α, 332-344 = GAPGTLYTFPTLV]",1.47 ± 0.38
8,"MASGILLNVKEEVTCPICLELLTEPLSLHCGHSFCQACITANHKKSMLYKEGERSCPVCRISYQPENIQPNRHVANIVEKLREVKLSPEEGQKVDHCARHGEKLLLFCQEDSKVICWLCERSQEHRGHHTFLMEEVAQEYHVKLQTALEMLRQKQQEAEKLEADIREEKASWKIQIDYDKTNVSADFEQLREILDWEESNELQNLEKEEEDILKSLTKSETEMVQQTQYMRELISELEHRLQGSMMDLLQGVDGIIKRIENMTLKKPKTFHKNQRRVFRAPDLKGMLDMFRELTDARRYWVDVTLAPNNISHAVIAEDKRQVSSRNPQIMYGARGTRYTFQSFVNFNYCTGVLGSQSITSGKHYWEVDVSKKSAWILGVCAGFQSDAMYNIEQNENYQPKYGYWVIGLQEGVKYSVFQDGSSHTPFAPFIVPLSVIICPDRVGVFVDYEACTVSFFNITNHGFLIYKFSQCSFSKPVFPYLNPRKCTVPMTLCSPSS [rhesus TRIM5α, 332-344 = GARGTRYTFQSFV]",1.4 ± 0.19
9,"MASGILLNVKEEVTCPICLELLTEPLSLHCGHSFCQACITANHKKSMLYKEGERSCPVCRISYQPENIQPNRHVANIVEKLREVKLSPEEGQKVDHCARHGEKLLLFCQEDSKVICWLCERSQEHRGHHTFLMEEVAQEYHVKLQTALEMLRQKQQEAEKLEADIREEKASWKIQIDYDKTNVSADFEQLREILDWEESNELQNLEKEEEDILKSLTKSETEMVQQTQYMRELISELEHRLQGSMMDLLQGVDGIIKRIENMTLKKPKTFHKNQRRVFRAPDLKGMLDMFRELTDARRYWVDVTLAPNNISHAVIAEDKRQVSSRNPQIMYQARGTRYTFPTFVNFNYCTGVLGSQSITSGKHYWEVDVSKKSAWILGVCAGFQSDAMYNIEQNENYQPKYGYWVIGLQEGVKYSVFQDGSSHTPFAPFIVPLSVIICPDRVGVFVDYEACTVSFFNITNHGFLIYKFSQCSFSKPVFPYLNPRKCTVPMTLCSPSS [rhesus TRIM5α, 332-344 = QARGTRYTFPTFV]",2.91 ± 0.63
10,"MASGILLNVKEEVTCPICLELLTEPLSLHCGHSFCQACITANHKKSMLYKEGERSCPVCRISYQPENIQPNRHVANIVEKLREVKLSPEEGQKVDHCARHGEKLLLFCQEDSKVICWLCERSQEHRGHHTFLMEEVAQEYHVKLQTALEMLRQKQQEAEKLEADIREEKASWKIQIDYDKTNVSADFEQLREILDWEESNELQNLEKEEEDILKSLTKSETEMVQQTQYMRELISELEHRLQGSMMDLLQGVDGIIKRIENMTLKKPKTFHKNQRRVFRAPDLKGMLDMFRELTDARRYWVDVTLAPNNISHAVIAEDKRQVSSRNPQIMYQARGTRFTFPSFVNFNYCTGVLGSQSITSGKHYWEVDVSKKSAWILGVCAGFQSDAMYNIEQNENYQPKYGYWVIGLQEGVKYSVFQDGSSHTPFAPFIVPLSVIICPDRVGVFVDYEACTVSFFNITNHGFLIYKFSQCSFSKPVFPYLNPRKCTVPMTLCSPSS [rhesus TRIM5α, 332-344 = QARGTRFTFPSFV]",0.728 ± 0.19
11,"MASGILLNVKEEVTCPICLELLTEPLSLHCGHSFCQACITANHKKSMLYKEGERSCPVCRISYQPENIQPNRHVANIVEKLREVKLSPEEGQKVDHCARHGEKLLLFCQEDSKVICWLCERSQEHRGHHTFLMEEVAQEYHVKLQTALEMLRQKQQEAEKLEADIREEKASWKIQIDYDKTNVSADFEQLREILDWEESNELQNLEKEEEDILKSLTKSETEMVQQTQYMRELISELEHRLQGSMMDLLQGVDGIIKRIENMTLKKPKTFHKNQRRVFRAPDLKGMLDMFRELTDARRYWVDVTLAPNNISHAVIAEDKRQVSSRNPQIMYQARGTLYTFPTFVNFNYCTGVLGSQSITSGKHYWEVDVSKKSAWILGVCAGFQSDAMYNIEQNENYQPKYGYWVIGLQEGVKYSVFQDGSSHTPFAPFIVPLSVIICPDRVGVFVDYEACTVSFFNITNHGFLIYKFSQCSFSKPVFPYLNPRKCTVPMTLCSPSS [rhesus TRIM5α, 332-344 = QARGTLYTFPTFV]",1.47 ± 1.2
12,"MASGILLNVKEEVTCPICLELLTEPLSLHCGHSFCQACITANHKKSMLYKEGERSCPVCRISYQPENIQPNRHVANIVEKLREVKLSPEEGQKVDHCARHGEKLLLFCQEDSKVICWLCERSQEHRGHHTFLMEEVAQEYHVKLQTALEMLRQKQQEAEKLEADIREEKASWKIQIDYDKTNVSADFEQLREILDWEESNELQNLEKEEEDILKSLTKSETEMVQQTQYMRELISELEHRLQGSMMDLLQGVDGIIKRIENMTLKKPKTFHKNQRRVFRAPDLKGMLDMFRELTDARRYWVDVTLAPNNISHAVIAEDKRQVSSRNPQIMYQARGTRYTFQTLTNFNYCTGVLGSQSITSGKHYWEVDVSKKSAWILGVCAGFQSDAMYNIEQNENYQPKYGYWVIGLQEGVKYSVFQDGSSHTPFAPFIVPLSVIICPDRVGVFVDYEACTVSFFNITNHGFLIYKFSQCSFSKPVFPYLNPRKCTVPMTLCSPSS [rhesus TRIM5α, 332-344 = QARGTRYTFQTLT]",1.03 ± 0.078

# Source: the supplement of paper PMC12230231
